{"source": "PubChem BioAssay AID651820", "about": "(National Center for Advancing Translational Sciences (NCATS), 2012)", "note": "The whole screen tested about 340,000 compounds, of which about 12,000 (3.5%) were called active. This list was built around the results that the source calls inconclusive (neither active nor inactive); the mix of calls is not that of the screen. The call rests on the fitted dose curve; in most records, active means well fitted inhibition curve with a large enough effect; inconclusive means small, poorly fitted or top-dose-only effect, or another doubt; inactive means no such curve, though single readings can be large or run the other way. Potencies of inconclusive entries are left out as doubtful fits. On the % scale 0 is the no-effect control and ±100 the full control effect; potency means the concentration at half of the fitted maximal effect; tags describe the fitted curve by direction and shape.", "data": [{"assay": "qHTS Assay for Inhibitors of Hepatitis C Virus (HCV)", "conditions": "Huh7.5.1 HCVcc-Cre (HCVcc is cell-culture hepatitis C virus) infection, luciferase reporter, 44 h; activity change, negative = inhibition: at 41.8 µM (top of the series) unless noted", "how_it_was_run": "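Cells (1,000/well) were plated 4 h before compound, then infected with HCVcc-Cre virus (~0.5 moi). After 44 h further culture, infection was read as luciferase luminescence following a 15 min substrate incubation at room temperature.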", "values": [{"smiles": "COc1ccc(C2/C=C\\CN3CCC[C@H]3C(=O)N2Cc2ccc(F)cc2)cc1", "note": "(some centres undefined)", "Potency": "inconclusive [inhibitor, single point]"}, {"smiles": "COc1ccc([C@H]2CC(=O)C=C(c3ccccc3-c3ccccc3)C2)cc1", "Potency": "inconclusive [inhibitor, full curve]"}, {"smiles": "CC1(C)C(C=C(Cl)Cl)C1C(=O)Nc1ccc([N+](=O)[O-])cc1", "note": "(centres undefined)", "Potency": "inconclusive [inhibitor, single point]"}, {"smiles": "N#Cc1c(-c2ccccc2)c(-c2ccccc2)n(Cc2ccco2)c1NC(=O)c1cccs1", "Potency": "active: 2.82 µM"}, {"smiles": "COc1ccc(OCc2nnc(SCC(=O)Nc3nnc(C4CC4)s3)n2C)cc1", "activity change, negative = inhibition": "inactive: 29.9%"}, {"smiles": "CO/N=C/C(C#N)=C/c1ccc(OC)c(OC)c1", "Potency": "inconclusive [inhibitor, single point]"}, {"smiles": "Cc1ccccc1C1c2[nH]c3ccccc3c2C[C@H]2C(=O)N(c3ccccc3C(=O)NCCN3CCOCC3)C(=O)N12", "note": "(some centres undefined)", "Potency": "inconclusive [inhibitor, partial curve, poor fit]"}, {"smiles": "CC(C)(C)OC(=O)N(CCc1ccccc1)Cc1ccc(OCc2cccc(NC(=O)/C=C/c3ccccc3)c2)cc1", "activity change, negative = inhibition": "inactive: -3.18%"}, {"smiles": "CCCOc1ccc(C(=O)NCC(c2ccco2)N(C)C)cc1OC", "note": "(centres undefined)", "Potency": "inconclusive [inhibitor, single point]"}, {"smiles": "COc1ccc([N+](=O)[O-])cc1NC(=O)C(C)OC(=O)CSC(C)C(=O)Nc1cc(C)on1", "note": "(centres undefined)", "Potency": "inconclusive [inhibitor, partial curve]"}, {"smiles": "COc1ccccc1-c1noc(Cn2cc(S(=O)(=O)N3CCCC3)ccc2=O)n1", "activity change, negative = inhibition": "inactive: -5.13%"}, {"smiles": "C/C(=N/NC(=O)c1ccccc1)c1ccc(NC(=O)C(F)(F)F)cc1", "activity change, negative = inhibition": "inactive: 0.709%"}, {"smiles": "O=C(NCCc1ccccc1)c1cccc(NC(=O)C2CCCCC2)c1", "Potency": "inconclusive [inhibitor, partial curve, poor fit]"}, {"smiles": "COc1ccc(OCCSc2nc(C)nc3ccccc23)cc1", "Potency": "inconclusive [inhibitor, single point]"}, {"smiles": "COC(=O)Nc1ccc([N+](=O)[O-])cc1OC", "activity change, negative = inhibition": "inactive: 0.575%"}, {"smiles": "CCCCn1c(N)c(N(CC(C)C)C(=O)CN2C(=O)NC3(CC(C)CC(C)(C)C3)C2=O)c(=O)[nH]c1=O", "note": "(centres undefined)", "Potency": "inconclusive [inhibitor, partial curve]"}, {"smiles": "CC(C(=O)NC(=O)NC1CCCCC1)N(C)CC(=O)Nc1ccc(F)c(F)c1F", "note": "(centres undefined)", "Potency": "inconclusive [inhibitor, single point]"}, {"smiles": "COc1cccc(CN(C(=O)Cc2c[nH]c3ccccc23)C(C(=O)NC2CCCCC2)c2ccc(C)o2)c1", "note": "(centres undefined)", "Potency": "inconclusive [inhibitor, partial curve]"}, {"smiles": "COCc1cc(C2C(C(=O)c3ccco3)=C(O)C(=O)N2CCOCCO)ccc1O", "note": "(centres undefined)", "Potency": "inconclusive [inhibitor, single point]"}, {"smiles": "CCn1ccnc1CN1CCCC(C(=O)c2cc(Cl)ccc2OC)C1", "note": "(centres undefined)", "Potency": "inconclusive [inhibitor, single point]"}, {"smiles": "O=C(O)/C=C\\C(=O)NNC(=O)c1cc(-c2ccccc2)n[nH]1", "activity change, negative = inhibition": "inactive: 4.25%"}, {"smiles": "NC(=O)c1cc(NC(=O)c2ccc(NS(=O)(=O)c3cccs3)cc2)cc(C(N)=O)c1", "Potency": "inconclusive [inhibitor, single point]"}, {"smiles": "O=C(O)/C=C/C(=O)Nc1ccc(OCc2ccccc2)cc1", "activity change, negative = inhibition": "inactive: 15.3%"}, {"smiles": "COc1cc(OC)cc(C(=O)NNC(=O)c2ccccn2)c1", "Potency": "inconclusive [inhibitor, partial curve]"}, {"smiles": "CC1CC(C)CN(Cc2nc3c(c(=O)n(C)c(=O)n3C)n2CCN2CCOCC2)C1", "note": "(centres undefined)", "Potency": "inconclusive [inhibitor, single point]"}, {"smiles": "Cc1ccccc1NC(=O)C1Cc2ccccc2C(=O)O1", "note": "(centres undefined)", "activity change, negative = inhibition": "inactive: 1.14%"}, {"smiles": "Cn1c(N)c(C(=O)Nc2ccccc2)c(=O)[nH]c1=O", "activity change, negative = inhibition": "inactive: 24.7%"}, {"smiles": "Cc1ccc(SCC(=O)OCC(=O)N(C)CC(=O)Nc2ccccc2Cl)cc1", "Potency": "inconclusive [inhibitor, partial curve, poor fit]"}, {"smiles": "CC(=O)Nc1cccc(NC(=O)C(=O)NCC(c2ccco2)N2CCc3ccccc32)c1", "note": "(centres undefined)", "Potency": "inconclusive [inhibitor, full curve]"}, {"smiles": "O=C(Nc1ccc(N2CCOCC2)c(Cl)c1)c1cccnc1", "Potency": "inconclusive [inhibitor, single point]"}, {"smiles": "CCCCN(CC)CCCNC(=O)c1cc2cc3ccc(OC)cc3nc2o1", "Potency": "inconclusive [inhibitor, single point]"}, {"smiles": "COc1ccccc1C1/C(=C(/O)c2ccccc2)C(=O)C(=O)N1CC(C)O", "note": "(centres undefined)", "activity change, negative = inhibition": "inactive: 4.41%"}, {"smiles": "O=C(CSc1nnc(COc2ccccc2Cl)o1)Nc1ccccc1", "activity change, negative = inhibition": "inactive: 2.25%"}, {"smiles": "COc1cc(C(=O)NCCC(=O)NC(C)CCc2ccccc2)cc(OC)c1OC", "note": "(centres undefined)", "activity change, negative = inhibition": "inactive: -2.75%"}, {"smiles": "CCCn1c2ccc(C)cc2c2nnc(SCCN3CCOCC3)nc21", "Potency": "inconclusive [inhibitor, partial curve]"}, {"smiles": "CC(=O)N1CCN(Cc2nc3cc(NC(=O)Nc4ccccc4)ccc3n2C)CC1", "Potency": "inconclusive [inhibitor, single point]"}, {"smiles": "COc1ccc(CN(C)C(=O)Cn2cnc3c(SC)nc(N)nc32)cc1OC", "Potency": "active: 4.47 µM"}, {"smiles": "CC(=O)Nc1ccc(NC(=O)C(C)OC(=O)c2ccc(OCc3c(C)noc3C)cc2)cc1", "note": "(centres undefined)", "Potency": "inconclusive [inhibitor, single point]"}, {"smiles": "Oc1cccc(/C=N/NC(=S)Nc2cccnc2)c1O", "Potency": "inconclusive [inhibitor, partial curve, poor fit]"}, {"smiles": "Cc1cc2c(Nc3ccc(O)cc3)ncnc2s1", "Potency": "inconclusive [inhibitor, single point]"}, {"smiles": "Cc1c(NC(=O)/C=C/c2cn(-c3ccccc3)nc2-c2ccccc2)c(=O)n(-c2ccccc2)n1C", "Potency": "inconclusive [inhibitor, partial curve]"}, {"smiles": "CCOc1cc(C)c(C(C)C)cc1S(=O)(=O)n1ccc(C)n1", "Potency": "inconclusive [inhibitor, partial curve]"}, {"smiles": "CC(=O)NC(Cc1ccc(N(CCCl)CCCl)cc1)C(=O)NC(C(=O)O)C(C)C", "note": "(centres undefined)", "activity change, negative = inhibition": "inactive: -11.2%"}, {"smiles": "O=C(CSc1ccc2ccccc2c1)NCCc1ccc(O)c(O)c1", "Potency": "inconclusive [inhibitor, single point]"}, {"smiles": "CON(C)S(=O)(=O)c1cccc(C(=O)Nc2cccc(S(=O)(=O)NC3=NCCCCC3)c2)c1", "Potency": "inconclusive [inhibitor, partial curve]"}, {"smiles": "COc1ccc(N2CCN(CCCN)CC2)cc1", "Potency": "active: 10 µM"}, {"smiles": "CC(=O)Oc1c(I)cc(I)cc1C(=O)Nc1ccc(Cl)cc1", "Potency": "inconclusive [inhibitor, single point]"}, {"smiles": "O=C(NCc1cccs1)c1nc(-c2cccs2)no1", "Potency": "inconclusive [inhibitor, single point]"}, {"smiles": "COCCCNC(=S)NCCNc1nc2cc(C)c(C)cc2cc1C#N", "Potency": "inconclusive [inhibitor, partial curve, poor fit]"}, {"smiles": "COC(=O)c1[nH]c2ccc(C)cc2c1NC(=O)CN1CCN(Cc2ccccc2)CC1", "Potency": "inconclusive [inhibitor, single point]"}, {"smiles": "COc1ccc(S(=O)(=O)NCCN2CCOCC2)c2ccccc12", "activity change, negative = inhibition": "inactive: 17.4%"}, {"smiles": "CCN1CCCC1CNC(=O)c1ccc2c(c1)NC(=O)/C(=C\\c1ccc(C)cc1)S2", "note": "(centres undefined)", "Potency": "active: 6.31 µM"}, {"smiles": "CCOc1ccc2ccc(OCC)c(/C=N/n3cnnc3)c2c1", "Potency": "inconclusive [inhibitor, partial curve]"}, {"smiles": "Cc1noc(C)c1C(=O)N(CC(C)C)c1nc2ccccc2s1", "Potency": "inconclusive [inhibitor, single point]"}, {"smiles": "Cc1ccc(NC(=O)c2ccc(OCc3c(C)noc3C)cc2)cc1C", "Potency": "active: 4.47 µM"}, {"smiles": "CC(C)(C)C(=O)Nc1sc2c(c1-c1nc3ccccc3[nH]1)CCCC2", "Potency": "inconclusive [inhibitor, partial curve, poor fit]"}, {"smiles": "CC(C)(C)n1nnnc1C(c1ccccc1F)N(Cc1ccco1)CC1CCCO1", "note": "(centres undefined)", "activity change, negative = inhibition": "inactive: -0.691%"}, {"smiles": "CN(C)Cc1nc2ccccc2c(=O)n1Cc1nc(C(C)(C)C)cs1", "Potency": "inconclusive [inhibitor, single point]"}, {"smiles": "S=C(c1cn(CCOc2cccc3ccccc23)c2ccccc12)N1CCCC1", "Potency": "inconclusive [inhibitor, single point]"}, {"smiles": "CCC(C)(C)n1nnnc1C(c1ccncc1)N1CCN(c2cccc(OC)c2)CC1", "note": "(centres undefined)", "activity change, negative = inhibition": "inactive: 1.05%"}, {"smiles": "CCC(NC(=O)C1CCCC1)c1ccccc1", "note": "(centres undefined)", "activity change, negative = inhibition": "inactive: 10.9%"}, {"smiles": "Cc1ccccc1OCCCC(=O)Nc1ccc(Br)cc1", "Potency": "inconclusive [inhibitor, full curve, poor fit]"}, {"smiles": "COCCN(C(=S)Nc1ccc(C)c(C)c1)C(C)c1ccco1", "note": "(centres undefined)", "Potency": "inconclusive [inhibitor, single point]"}, {"smiles": "COC(=O)Nc1nc2ccc(SC(C)C)cc2[nH]1", "Potency": "inconclusive [inhibitor, full curve, poor fit]"}, {"smiles": "COc1ccc(S(=O)(=O)N2CCCC2=O)cc1N(C)S(C)(=O)=O", "activity change, negative = inhibition": "inactive: 19.9%"}, {"smiles": "Cc1ccc(-c2nn3c(C)nnc3c3ccccc23)cc1S(=O)(=O)NCc1ccccc1", "Potency": "inconclusive [inhibitor, partial curve, poor fit]"}, {"smiles": "COc1ccc(/C=C/C(=O)NCc2cnn(C)c2C)cc1COc1ccc(Br)cc1", "Potency": "inconclusive [inhibitor, partial curve, poor fit]"}, {"smiles": "O=S(=O)(NC1CCCCC1N1CCN(c2ccc(F)cc2)CC1)c1ccc(Cl)cc1", "note": "(centres undefined)", "activity change, negative = inhibition": "inactive: -8.81%"}, {"smiles": "O=C(CCSc1nc(-c2ccco2)cc(C(F)(F)F)n1)NCCN1CCOCC1", "Potency": "inconclusive [inhibitor, single point]"}]}]}
